Test results as given in a compilation of properties of binary mixtures (doi:10.1016/j.molliq.2017.11.153).
Some of these densities may be calculated back from excess volumes.

Experiment: xn = mol fraction of the nth substance listed
Conditions: 101 kPa

CCCC[n+]1ccccc1.N#C[N-]C#N + CC1COC(=O)O1
mass density [kg/m3]
Conditions | x1 = 0.1003 | x1 = 0.197 | x1 = 0.3005 | x1 = 0.4003 | x1 = 0.4997 | x1 = 0.6002 | x1 = 0.7011 | x1 = 0.7885 | x1 = 0.9008 | x1 = 1
288.15 K | – | 1166 | 1148 | 1133 | 1120 | 1109 | 1099 | 1091 | 1082 | 1075
293.15 K | 1181 | 1162 | 1144 | 1129 | – | 1105 | 1095 | 1087 | 1079 | 1072
298.15 K | 1177 | 1157 | – | 1126 | 1113 | 1102 | – | – | 1076 | 1069
303.15 K | 1172 | 1153 | – | 1122 | 1110 | – | 1089 | 1081 | 1072 | 1066
308.15 K | – | 1149 | – | 1118 | 1106 | 1095 | – | 1078 | 1069 | 1062
313.15 K | – | 1144 | – | 1114 | 1102 | 1092 | 1082 | 1074 | 1066 | 1060
318.15 K | – | 1140 | 1124 | 1110 | 1099 | 1088 | – | 1071 | 1063 | 1057
323.15 K | 1153 | – | – | 1106 | 1095 | 1085 | – | – | 1060 | 1054
328.15 K | 1148 | 1131 | 1116 | 1103 | 1092 | – | 1072 | 1065 | 1057 | –
333.15 K | 1144 | – | – | 1099 | 1088 | 1078 | – | 1061 | 1054 | –
338.15 K | 1139 | – | 1108 | 1095 | 1085 | 1075 | 1066 | 1059 | 1051 | 1045
343.15 K | 1134 | 1119 | 1104 | 1091 | 1081 | 1071 | – | 1055 | – | 1042
348.15 K | 1130 | 1114 | – | 1088 | 1077 | 1068 | – | 1053 | 1045 | 1039
353.15 K | 1125 | 1110 | 1096 | – | 1074 | 1065 | 1056 | 1049 | 1042 | 1036

CC1COC(=O)O1 (configuration not stated) + CCCC[n+]1ccccc1.N#C[N-]C#N
x2 = 0
Conditions | mass density [kg/m3]
288.15 K | 1210
293.15 K | 1204
298.15 K | 1199
303.15 K | 1194
308.15 K | 1189
313.15 K | 1183
323.15 K | 1173
328.15 K | 1167
338.15 K | 1157
343.15 K | 1151
348.15 K | 1146
353.15 K | 1141
